{"source": "PubChem BioAssay AID463173", "about": "(ICCB-Longwood Screening Facility, Harvard Medical School, 2010)", "note": "About 1,700 (3.3%) of roughly 52,000 compounds were called active. Rule as the data show it: active = survival mostly below about 52% (no sharp cut-off); inactive = mostly above about 56%. The list shows a part of the results."}
{"system": "Wild type", "experiment": "growth inhibition of S. aureus wild type versus tarO mutant, primary screen, teichoic acid synthesis inhibitors, RN4220, OD600 (AID 463173)", "conditions": "S. aureus RN4220 wild type/DeltatarO growth, OD600, 18 h, hits give low values, screened at 18.75 µg/mL (by protocol)"}
{"compound": "Cc1ccc2c(c1)C1OCCC1C(c1ccncc1)N2", "note": "(configuration not stated)", "survival": "inactive: 113%"}
{"compound": "CCOc1ccc(OCC)c(NC(=O)C2CCN(c3cnccn3)CC2)c1", "survival": "inactive: 101%"}
{"compound": "O=C1C2C(C(=O)N1CC1CCCO1)C1C=CC2C12CC2", "note": "(configuration not stated)", "survival": "inactive: 105%"}
{"compound": "O=C(CNS(=O)(=O)c1ccccc1)NCc1ccccn1", "survival": "inactive: 113%"}
{"compound": "O=C(c1ccc(F)cc1F)N1CCC(c2noc(-c3ccc(S(=O)(=O)N4CCCC4)cc3)n2)CC1", "survival": "inactive: 89%"}
{"compound": "O=C(Nc1nnc(S(=O)(=O)N2CCOCC2)s1)c1ccc(F)cc1", "survival": "inactive: 80%"}
{"compound": "N#Cc1cccc(NC(=O)c2ccc3c(c2)N(Cc2cccc(Cl)c2)C(=O)c2ccccc2S3(=O)=O)c1", "survival": "inactive: 98%"}
{"compound": "O=C(O)c1cc2ccccc2[nH]c1=O", "survival": "inactive: 100%"}
{"compound": "CCc1ccc(NC(=O)CN(Cc2ccccc2)S(=O)(=O)c2ccc3nc(C)sc3c2)cc1", "survival": "inactive: 73%"}
{"compound": "Cc1ccccc1-c1noc(-c2ccccc2OCC(=O)Nc2ccccc2[N+](=O)[O-])n1", "survival": "inactive: 85%"}
{"compound": "CCc1ccc(S(=O)(=O)c2nnn3c2nc(NCc2ccccc2OC)c2cc(Cl)ccc23)cc1", "survival": "inactive: 99%"}
{"compound": "Cc1ccc2c(c1)c(C)cc(=O)n2CCC(=O)O", "survival": "inactive: 106%"}
{"compound": "COc1ccc(C2NC(=O)N(C)C3=C2C(=O)N(c2ccc(C)cc2)C3)cc1", "note": "(configuration not stated)", "survival": "inactive: 82%"}
{"compound": "Cc1ccccc1CSc1nc2cccnc2n1Cc1ccc(C(=O)NCCc2cccs2)cc1", "survival": "inactive: 60%"}
{"compound": "Cc1ccc2oc(=O)n(CCNC(=O)Nc3ccc(C)c(F)c3)c2c1", "survival": "inactive: 108%"}
{"compound": "COc1ccccc1C1C=C(c2ccc(Cl)cc2)Nc2nc(-c3ccc(Cl)cc3)nn21", "note": "(configuration not stated)", "survival": "inactive: 79%"}
{"compound": "Cc1ccc(C)c(N2CCN(C(=O)C(C)n3c(C)c4cnn(-c5ccccc5)c(=O)c4c3C)CC2)c1", "note": "(configuration not stated)", "survival": "inactive: 76%"}
{"compound": "COc1ccc(Cl)cc1N(C)C(=O)C(=O)Nc1ccc2nc3n(c(=O)c2c1)CCCCC3", "survival": "inactive: 63%"}
{"compound": "Cc1ccc(N2CCN(C(=O)c3noc4c3COc3ccc(C)cc3-4)CC2)c(C)c1", "survival": "inactive: 89%"}
{"compound": "Cc1ccc(CN(C(=O)COc2ccc(Br)cc2)c2ccccn2)o1", "survival": "inactive: 80%"}
{"compound": "COc1ccc(NC(=O)CSc2nc(-c3ccccc3)nc3c2Cc2c(CO)cnc(C)c2O3)cc1Cl", "survival": "inactive: 85%"}
{"compound": "CCCCCn1c(=N)n(CC(O)COc2cccc(C)c2)c2ccccc21", "note": "(configuration not stated)", "survival": "inactive: 34%"}
{"compound": "Cc1ccc(CNC(=O)c2c(-c3cccc(Br)c3)noc2C)o1", "survival": "inactive: 112%"}
{"compound": "CC(Nc1ccc(-c2nc(-c3ccccn3)no2)cc1[N+](=O)[O-])c1ccccc1", "note": "(configuration not stated)", "survival": "inactive: 50%"}
{"compound": "Cc1ccc(C)c(Cn2nc(C)n3c(cc4cc(C)ccc43)c2=O)c1", "survival": "inactive: 79%"}
{"compound": "COC(=O)c1ccc(OCC2c3cc(OC)c(OC)cc3CCN2C(=O)c2ccccc2F)cc1", "note": "(configuration not stated)", "survival": "inactive: 75%"}
{"compound": "O=C(CSCc1cnn(-c2ccccc2)c1-n1cccc1)Nc1ccc(F)cc1F", "survival": "inactive: 87%"}
{"compound": "CCc1ccc(NC(=O)c2cc3c(=O)n(Cc4cccnc4)ccc3nc2C)cc1", "survival": "inactive: 95%"}
{"compound": "Cc1cccc(C(=O)Nc2cccc(OCc3cc(=O)n4c(C)csc4n3)c2)c1", "survival": "inactive: 79%"}
{"compound": "COC(=O)c1ccc(Cl)c(NC(=O)C2CCN(S(=O)(=O)Cc3ccccc3)CC2)c1", "survival": "inactive: 119%"}
{"compound": "CCc1ccc(NC(=O)C(=O)NCC(c2cccnc2)N2CCOCC2)cc1", "note": "(configuration not stated)", "survival": "inactive: 84%"}
{"compound": "CCOC(=O)c1c(-c2cccs2)csc1NC(=O)c1ccccc1", "survival": "inactive: 113%"}
{"compound": "COc1ccc(Nc2nc(N)nc(CSc3nc4cc(OC)ccc4s3)n2)cc1", "survival": "active: 8%"}
{"compound": "COc1ccc(NC(=O)Cc2csc(COc3cccc(C)c3)n2)c(OC)c1", "survival": "inactive: 90%"}
{"compound": "CC(C)c1nn2c(=O)cc(COC(=O)CNC(=O)c3ccccc3)nc2s1", "survival": "inactive: 152%"}
{"compound": "COc1ccc(-c2noc(CCC(=O)NCc3ccc(OC)cc3OC)n2)cc1", "survival": "inactive: 111%"}
{"compound": "COc1ccc(OCC(=O)NCCS(=O)(=O)N2CCN(c3cccc(Cl)c3)CC2)cc1", "survival": "inactive: 58%"}
{"compound": "CCn1cc(C(=O)N(C)Cc2ccccc2)c(=O)c2cc(S(=O)(=O)N3CCCCCC3)ccc21", "survival": "inactive: 75%"}
{"compound": "CCCN(CCC)CC(O)Cn1cc(/C=C/C(=O)c2ccc(OCC)cc2)c2ccccc21", "note": "(configuration not stated)", "survival": "active: 23%"}
{"compound": "CCC(CC)C(=O)Nc1ccc2nc(SCC(=O)N3c4ccccc4CC3C)sc2c1", "note": "(configuration not stated)", "survival": "inactive: 85%"}
{"compound": "CCOC(=O)c1c(C)sc(-c2c(-c3ccc(OC)c(F)c3)[nH]c3c2c(=O)[nH]c(=O)n3C)c1O", "survival": "inactive: 109%"}
{"compound": "CC(C)Oc1ccc(CNC(=O)c2ccc3nc(Cc4ccccc4)oc3c2)cc1", "survival": "inactive: 73%"}
{"compound": "Cc1cc(C)cc(OCC(=O)N(Cc2ccc(C)o2)C2CCS(=O)(=O)C2)c1", "note": "(configuration not stated)", "survival": "inactive: 86%"}
{"compound": "Cc1ccc(-c2nn3c(=O)cc(CN4CCN(C(=O)Nc5cc(Cl)ccc5C)CC4)nc3s2)cc1", "survival": "inactive: 126%"}
{"compound": "COc1ccc(Cn2nnnc2CN2CCN(c3cc(Cl)ccc3C)CC2)cc1", "survival": "inactive: 112%"}
{"compound": "COc1cc(OC)c(Nc2ncnc3onc(-c4cccc(Cl)c4)c23)cc1Cl", "survival": "inactive: 91%"}
{"compound": "CCC(C)NC(=O)CSc1nc2cc3c(cc2c(=O)n1CCCC(=O)NCc1ccc2c(c1)OCO2)OCO3", "note": "(configuration not stated)", "survival": "inactive: 71%"}
{"compound": "COc1ccc(Cl)cc1NC(=O)c1c(NCc2ccc(C)o2)sc2c1CCCC2", "survival": "inactive: 91%"}
{"compound": "N#CC1=C(S)N(c2ccccc2)C2(CCCCC2)NC1=O", "survival": "inactive: 101%"}
{"compound": "COCCNC(=O)c1cc2c(Cl)nc3ccc(C)cc3c2s1", "survival": "inactive: 91%"}
{"compound": "Cc1ccc(CN(Cc2ccco2)C(=O)c2oc3c(C)c(C)ccc3c2C)cc1", "survival": "inactive: 85%"}
{"compound": "COc1cccc(N(CC(=O)N2CCC(C)CC2)S(=O)(=O)c2ccc(C)cc2)c1", "survival": "inactive: 83%"}
{"compound": "C=CCc1c(C)nc2nc(SCC(=O)Nc3ccc(OCC)cc3)nn2c1C", "survival": "inactive: 130%"}
{"compound": "CCCCOc1ccc(C2=NC(c3ccccc3)=Nc3ccc(OC)cc3N2)cc1", "survival": "inactive: 81%"}
{"compound": "Cn1c(=O)c2c(-c3ccccc3Br)n(CCc3ccccc3)cc2n(C)c1=O", "survival": "inactive: 75%"}
{"compound": "Clc1ccccc1Cc1cn2cc(-c3ccccc3)nc2s1", "survival": "inactive: 85%"}
{"compound": "CCc1ccc(NC(=O)CSc2nnc(-c3cc4occc4n3C)n2-c2ccccc2C)cc1", "survival": "inactive: 87%"}
